Measurements published in patent US20240076343A1.

Experiments:
[1] = molecular target: high-affinity hIL-2 receptor (IL-2Rαβγ) (human) (UniProt P01589); assay: cell-based or functional assay
[2] = molecular target: intermediate affinity hIL-2 receptor complex (IL-2Rβγ) (human) (UniProt P14784); assay: cell-based or functional assay
Chain of UniProt P14784 (P14784 27-551, chain 1 of 2): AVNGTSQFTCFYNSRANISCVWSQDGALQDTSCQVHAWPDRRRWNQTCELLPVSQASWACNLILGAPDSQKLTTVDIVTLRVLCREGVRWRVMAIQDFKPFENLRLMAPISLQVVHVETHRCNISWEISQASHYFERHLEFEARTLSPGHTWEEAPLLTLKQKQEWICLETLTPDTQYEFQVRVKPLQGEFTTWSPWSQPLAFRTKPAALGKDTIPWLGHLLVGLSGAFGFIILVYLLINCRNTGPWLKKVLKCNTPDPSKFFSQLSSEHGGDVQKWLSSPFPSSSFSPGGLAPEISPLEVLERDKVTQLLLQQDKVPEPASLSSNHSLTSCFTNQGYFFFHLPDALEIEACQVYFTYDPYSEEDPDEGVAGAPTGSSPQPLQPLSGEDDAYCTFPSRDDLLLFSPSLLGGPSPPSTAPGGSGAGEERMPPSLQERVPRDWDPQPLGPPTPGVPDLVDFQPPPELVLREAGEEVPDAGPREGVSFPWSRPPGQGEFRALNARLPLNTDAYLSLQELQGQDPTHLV
Chain of UniProt P14784 (chain, as listed by the source, chain 2 of 2): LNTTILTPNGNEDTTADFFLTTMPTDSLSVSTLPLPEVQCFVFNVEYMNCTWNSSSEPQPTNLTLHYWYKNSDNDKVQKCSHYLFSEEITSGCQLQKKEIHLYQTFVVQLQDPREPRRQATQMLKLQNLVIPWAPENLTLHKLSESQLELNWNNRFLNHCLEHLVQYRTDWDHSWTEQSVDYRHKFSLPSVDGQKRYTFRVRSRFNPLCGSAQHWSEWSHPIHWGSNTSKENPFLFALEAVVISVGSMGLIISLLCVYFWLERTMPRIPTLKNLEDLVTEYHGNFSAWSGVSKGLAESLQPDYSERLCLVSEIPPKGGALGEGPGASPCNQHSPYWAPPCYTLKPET

Chain of UniProt P01589 (P01589 22-272, chain 1 of 3): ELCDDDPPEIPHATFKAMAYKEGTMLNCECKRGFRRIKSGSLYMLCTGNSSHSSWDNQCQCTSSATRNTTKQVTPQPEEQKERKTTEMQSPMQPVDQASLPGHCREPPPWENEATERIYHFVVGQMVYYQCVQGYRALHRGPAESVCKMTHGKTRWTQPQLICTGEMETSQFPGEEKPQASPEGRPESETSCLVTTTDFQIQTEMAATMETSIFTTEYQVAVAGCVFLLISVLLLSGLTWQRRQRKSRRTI
Chain of UniProt P01589 (chain, as listed by the source, chain 2 of 3): as the sequence (P14784 27-551, chain 1 of 2) above
Chain of UniProt P01589 (chain, as listed by the source, chain 3 of 3): as the sequence (chain, as listed by the source, chain 2 of 2) above

Row | Fold change from hIL-2 (NK-92), pSTAT5 fixed conc. [1] [fold] | Fold change from hIL-2 (TF1 + IL-2Rβ), pSTAT5 fixed conc. [2] [fold] | Binder
1 | 21 | 1 | 1H3-hIgG1-L6-hIL-2 (R38E/D84Y) (protein) heavy: EVQLVESGGGLVQPGRSLKLSCAVSGFTFSDYAMAWVRQAPKKGLEWVATISYDGSRTYYRDSVKGRFTISRDNAKITLYLQMDSLRSEDTATYYCARHGSGYFDYWGQGVMVTVSS[not shown - about 450 residues with a human IgG1 Fc and changes] light: DTVLTQSPALAVSPGERVTISCRASESVRTGVHWYQQKPGQQPKLLIYGASNLESGVPARFSGSGSGTDFTLTIDPVEADDTATYFCQQSWNDPFTFGSGTKLEIKRTVAAPSVFIFPPSDEQLKSGTASVVCLLNNFYPREAKVQWKVDNALQSGNSQESVTEQDSKDSTYSLSSTLTLSKADYEKHKVYACEVTHQGLSSPVTKSFNRGEC
2 | 21 | 1 | 1H3-hIgG1-L6-hIL-2 (R38E/I92H) (protein) heavy: EVQLVESGGGLVQPGRSLKLSCAVSGFTFSDYAMAWVRQAPKKGLEWVATISYDGSRTYYRDSVKGRFTISRDNAKITLYLQMDSLRSEDTATYYCARHGSGYFDYWGQGVMVTVSS[not shown - about 450 residues with a human IgG1 Fc and changes] light: DTVLTQSPALAVSPGERVTISCRASESVRTGVHWYQQKPGQQPKLLIYGASNLESGVPARFSGSGSGTDFTLTIDPVEADDTATYFCQQSWNDPFTFGSGTKLEIKRTVAAPSVFIFPPSDEQLKSGTASVVCLLNNFYPREAKVQWKVDNALQSGNSQESVTEQDSKDSTYSLSSTLTLSKADYEKHKVYACEVTHQGLSSPVTKSFNRGEC
3 | 22 | 1 | 1H3-hIgG1-L6-hIL-2 (R38E/D84V) (protein) heavy: EVQLVESGGGLVQPGRSLKLSCAVSGFTFSDYAMAWVRQAPKKGLEWVATISYDGSRTYYRDSVKGRFTISRDNAKITLYLQMDSLRSEDTATYYCARHGSGYFDYWGQGVMVTVSS[not shown - about 450 residues with a human IgG1 Fc and changes] light: DTVLTQSPALAVSPGERVTISCRASESVRTGVHWYQQKPGQQPKLLIYGASNLESGVPARFSGSGSGTDFTLTIDPVEADDTATYFCQQSWNDPFTFGSGTKLEIKRTVAAPSVFIFPPSDEQLKSGTASVVCLLNNFYPREAKVQWKVDNALQSGNSQESVTEQDSKDSTYSLSSTLTLSKADYEKHKVYACEVTHQGLSSPVTKSFNRGEC
4 | 22 | 2 | 1H3-hIgG1-L6-hIL-2 (R38E/I92S) (protein) heavy: EVQLVESGGGLVQPGRSLKLSCAVSGFTFSDYAMAWVRQAPKKGLEWVATISYDGSRTYYRDSVKGRFTISRDNAKITLYLQMDSLRSEDTATYYCARHGSGYFDYWGQGVMVTVSS[not shown - about 450 residues with a human IgG1 Fc and changes] light: DTVLTQSPALAVSPGERVTISCRASESVRTGVHWYQQKPGQQPKLLIYGASNLESGVPARFSGSGSGTDFTLTIDPVEADDTATYFCQQSWNDPFTFGSGTKLEIKRTVAAPSVFIFPPSDEQLKSGTASVVCLLNNFYPREAKVQWKVDNALQSGNSQESVTEQDSKDSTYSLSSTLTLSKADYEKHKVYACEVTHQGLSSPVTKSFNRGEC
5 | 22 | 1 | 1H3-hIgG1-L6-hIL-2 (R38E/I92N) (protein) heavy: EVQLVESGGGLVQPGRSLKLSCAVSGFTFSDYAMAWVRQAPKKGLEWVATISYDGSRTYYRDSVKGRFTISRDNAKITLYLQMDSLRSEDTATYYCARHGSGYFDYWGQGVMVTVSS[not shown - about 450 residues with a human IgG1 Fc and changes] light: DTVLTQSPALAVSPGERVTISCRASESVRTGVHWYQQKPGQQPKLLIYGASNLESGVPARFSGSGSGTDFTLTIDPVEADDTATYFCQQSWNDPFTFGSGTKLEIKRTVAAPSVFIFPPSDEQLKSGTASVVCLLNNFYPREAKVQWKVDNALQSGNSQESVTEQDSKDSTYSLSSTLTLSKADYEKHKVYACEVTHQGLSSPVTKSFNRGEC
6 | 16 | 1 | 1H3-hIgG1-L6-hIL-2 (R38E/I92F) (protein) heavy: EVQLVESGGGLVQPGRSLKLSCAVSGFTFSDYAMAWVRQAPKKGLEWVATISYDGSRTYYRDSVKGRFTISRDNAKITLYLQMDSLRSEDTATYYCARHGSGYFDYWGQGVMVTVSS[not shown - about 450 residues with a human IgG1 Fc and changes] light: DTVLTQSPALAVSPGERVTISCRASESVRTGVHWYQQKPGQQPKLLIYGASNLESGVPARFSGSGSGTDFTLTIDPVEADDTATYFCQQSWNDPFTFGSGTKLEIKRTVAAPSVFIFPPSDEQLKSGTASVVCLLNNFYPREAKVQWKVDNALQSGNSQESVTEQDSKDSTYSLSSTLTLSKADYEKHKVYACEVTHQGLSSPVTKSFNRGEC
7 | 22 | 2 | 1H3-hIgG1-L6-hIL-2 (R38E/I92E) (protein) heavy: EVQLVESGGGLVQPGRSLKLSCAVSGFTFSDYAMAWVRQAPKKGLEWVATISYDGSRTYYRDSVKGRFTISRDNAKITLYLQMDSLRSEDTATYYCARHGSGYFDYWGQGVMVTVSS[not shown - about 450 residues with a human IgG1 Fc and changes] light: DTVLTQSPALAVSPGERVTISCRASESVRTGVHWYQQKPGQQPKLLIYGASNLESGVPARFSGSGSGTDFTLTIDPVEADDTATYFCQQSWNDPFTFGSGTKLEIKRTVAAPSVFIFPPSDEQLKSGTASVVCLLNNFYPREAKVQWKVDNALQSGNSQESVTEQDSKDSTYSLSSTLTLSKADYEKHKVYACEVTHQGLSSPVTKSFNRGEC
8 | 22 | 1 | 1H3-hIgG1-L6-hIL-2 (R38E/I92Q) (protein) heavy: EVQLVESGGGLVQPGRSLKLSCAVSGFTFSDYAMAWVRQAPKKGLEWVATISYDGSRTYYRDSVKGRFTISRDNAKITLYLQMDSLRSEDTATYYCARHGSGYFDYWGQGVMVTVSS[not shown - about 450 residues with a human IgG1 Fc and changes] light: DTVLTQSPALAVSPGERVTISCRASESVRTGVHWYQQKPGQQPKLLIYGASNLESGVPARFSGSGSGTDFTLTIDPVEADDTATYFCQQSWNDPFTFGSGTKLEIKRTVAAPSVFIFPPSDEQLKSGTASVVCLLNNFYPREAKVQWKVDNALQSGNSQESVTEQDSKDSTYSLSSTLTLSKADYEKHKVYACEVTHQGLSSPVTKSFNRGEC
9 | 22 | 1 | 1H3-hIgG1-L6-hIL-2 (R38E/I92A) (protein) heavy: EVQLVESGGGLVQPGRSLKLSCAVSGFTFSDYAMAWVRQAPKKGLEWVATISYDGSRTYYRDSVKGRFTISRDNAKITLYLQMDSLRSEDTATYYCARHGSGYFDYWGQGVMVTVSS[not shown - about 450 residues with a human IgG1 Fc and changes] light: DTVLTQSPALAVSPGERVTISCRASESVRTGVHWYQQKPGQQPKLLIYGASNLESGVPARFSGSGSGTDFTLTIDPVEADDTATYFCQQSWNDPFTFGSGTKLEIKRTVAAPSVFIFPPSDEQLKSGTASVVCLLNNFYPREAKVQWKVDNALQSGNSQESVTEQDSKDSTYSLSSTLTLSKADYEKHKVYACEVTHQGLSSPVTKSFNRGEC
10 | 22 | 1 | 1H3-hIgG1-L6-hIL-2 (R38E/I92G) (protein) heavy: EVQLVESGGGLVQPGRSLKLSCAVSGFTFSDYAMAWVRQAPKKGLEWVATISYDGSRTYYRDSVKGRFTISRDNAKITLYLQMDSLRSEDTATYYCARHGSGYFDYWGQGVMVTVSS[not shown - about 450 residues with a human IgG1 Fc and changes] light: DTVLTQSPALAVSPGERVTISCRASESVRTGVHWYQQKPGQQPKLLIYGASNLESGVPARFSGSGSGTDFTLTIDPVEADDTATYFCQQSWNDPFTFGSGTKLEIKRTVAAPSVFIFPPSDEQLKSGTASVVCLLNNFYPREAKVQWKVDNALQSGNSQESVTEQDSKDSTYSLSSTLTLSKADYEKHKVYACEVTHQGLSSPVTKSFNRGEC
11 | 20 | 1 | 1H3-hIgG1-L6-hIL-2 (R38E/I92M) (protein) heavy: EVQLVESGGGLVQPGRSLKLSCAVSGFTFSDYAMAWVRQAPKKGLEWVATISYDGSRTYYRDSVKGRFTISRDNAKITLYLQMDSLRSEDTATYYCARHGSGYFDYWGQGVMVTVSS[not shown - about 450 residues with a human IgG1 Fc and changes] light: DTVLTQSPALAVSPGERVTISCRASESVRTGVHWYQQKPGQQPKLLIYGASNLESGVPARFSGSGSGTDFTLTIDPVEADDTATYFCQQSWNDPFTFGSGTKLEIKRTVAAPSVFIFPPSDEQLKSGTASVVCLLNNFYPREAKVQWKVDNALQSGNSQESVTEQDSKDSTYSLSSTLTLSKADYEKHKVYACEVTHQGLSSPVTKSFNRGEC
12 | 17 | 1 | 1H3-hIgG1-L6-hIL-2 (R38E/I92L) (protein) heavy: EVQLVESGGGLVQPGRSLKLSCAVSGFTFSDYAMAWVRQAPKKGLEWVATISYDGSRTYYRDSVKGRFTISRDNAKITLYLQMDSLRSEDTATYYCARHGSGYFDYWGQGVMVTVSS[not shown - about 450 residues with a human IgG1 Fc and changes] light: DTVLTQSPALAVSPGERVTISCRASESVRTGVHWYQQKPGQQPKLLIYGASNLESGVPARFSGSGSGTDFTLTIDPVEADDTATYFCQQSWNDPFTFGSGTKLEIKRTVAAPSVFIFPPSDEQLKSGTASVVCLLNNFYPREAKVQWKVDNALQSGNSQESVTEQDSKDSTYSLSSTLTLSKADYEKHKVYACEVTHQGLSSPVTKSFNRGEC
13 | 22 | 2 | 1H3-hIgG1-L6-hIL-2 (R38E/I92R) (protein) heavy: EVQLVESGGGLVQPGRSLKLSCAVSGFTFSDYAMAWVRQAPKKGLEWVATISYDGSRTYYRDSVKGRFTISRDNAKITLYLQMDSLRSEDTATYYCARHGSGYFDYWGQGVMVTVSS[not shown - about 450 residues with a human IgG1 Fc and changes] light: DTVLTQSPALAVSPGERVTISCRASESVRTGVHWYQQKPGQQPKLLIYGASNLESGVPARFSGSGSGTDFTLTIDPVEADDTATYFCQQSWNDPFTFGSGTKLEIKRTVAAPSVFIFPPSDEQLKSGTASVVCLLNNFYPREAKVQWKVDNALQSGNSQESVTEQDSKDSTYSLSSTLTLSKADYEKHKVYACEVTHQGLSSPVTKSFNRGEC
